Measured values: PMC9911399, “Two distinct binding modes provide the RNA-binding protein RbFox with extraordinary sequence specificity”
Changes are numbered by the printed parent chain; changes in the protein carry UniProt numbers. Some of the results follow.

T1: RBFOX1 RRM (Homo sapiens, UniProt Q9NWB1 109-208)
T1 sequence: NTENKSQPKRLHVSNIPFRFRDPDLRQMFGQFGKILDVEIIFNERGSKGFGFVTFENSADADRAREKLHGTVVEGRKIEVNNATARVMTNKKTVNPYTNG

B1: CGAAAUU (DNA:RNA)
RNA: GGGAGACCGGAAUUCAGAUUGUCCCGAAAUUUUAAAUCCCGUCGUAGCCACCA
DNA 1: CAATCTGAATTCCGGTCTCCC
DNA 2: TGGTGGCTACGACGGGATT
B2: CUCGGGG (DNA:RNA)
RNA: B1 RNA with G26U, A27C, A28G, A29G, U30G, U31G
DNA 1: CAATCTGAATTCCGGTCTCCC
DNA 2: TGGTGGCTACGACGGGATT
B3: GUCAUAC (DNA:RNA)
RNA: B1 RNA with C25G, G26U, A27C, A29U, U30A, U31C
DNA 1: CAATCTGAATTCCGGTCTCCC
DNA 2: TGGTGGCTACGACGGGATT
B4: UUUGACA (DNA:RNA)
RNA: B1 RNA with C25U, G26U, A27U, A28G, U30C, U31A
DNA 1: CAATCTGAATTCCGGTCTCCC
DNA 2: TGGTGGCTACGACGGGATT
B5: CCCUCGA (DNA:RNA)
RNA: B1 RNA with G26C, A27C, A28U, A29C, U30G, U31A
DNA 1: CAATCTGAATTCCGGTCTCCC
DNA 2: TGGTGGCTACGACGGGATT
B6: GAUCUAG (DNA:RNA)
RNA: GGGAGACCGGAAUUCAGAUUGUCCGAUCUAGUUAAAUCCCGUCGUAGCCACCA
DNA 1: CAATCTGAATTCCGGTCTCCC
DNA 2: TGGTGGCTACGACGGGATT
B7: UAAUAUU (DNA:RNA)
RNA: B1 RNA with C25U, G26A, A28U
DNA 1: CAATCTGAATTCCGGTCTCCC
DNA 2: TGGTGGCTACGACGGGATT
B8: UUGUUGU (DNA:RNA)
RNA: B1 RNA with C25U, G26U, A27G, A28U, A29U, U30G
DNA 1: CAATCTGAATTCCGGTCTCCC
DNA 2: TGGTGGCTACGACGGGATT
B9: CUACUUU (DNA:RNA)
RNA: B1 RNA with G26U, A28C, A29U
DNA 1: CAATCTGAATTCCGGTCTCCC
DNA 2: TGGTGGCTACGACGGGATT
B10: AACACUG (DNA:RNA)
RNA: B1 RNA with C25A, G26A, A27C, A29C, U31G
DNA 1: CAATCTGAATTCCGGTCTCCC
DNA 2: TGGTGGCTACGACGGGATT
B11: UGCCUAC (DNA:RNA)
RNA: B6 RNA with G25U, A26G, U27C, G31C
DNA 1: CAATCTGAATTCCGGTCTCCC
DNA 2: TGGTGGCTACGACGGGATT
B12: ACAAACC (DNA:RNA)
RNA: B1 RNA with C25A, G26C, U30C, U31C
DNA 1: CAATCTGAATTCCGGTCTCCC
DNA 2: TGGTGGCTACGACGGGATT
B13: UAGAAUC (DNA:RNA)
RNA: B1 RNA with C25U, G26A, A27G, U31C
DNA 1: CAATCTGAATTCCGGTCTCCC
DNA 2: TGGTGGCTACGACGGGATT
B14: ACAAGUG (DNA:RNA)
RNA: B1 RNA with C25A, G26C, A29G, U31G
DNA 1: CAATCTGAATTCCGGTCTCCC
DNA 2: TGGTGGCTACGACGGGATT
B15: GCGCGUG (DNA:RNA)
RNA: B6 RNA with A26C, U27G, U29G, A30U
DNA 1: CAATCTGAATTCCGGTCTCCC
DNA 2: TGGTGGCTACGACGGGATT
B16: CACCUUC (DNA:RNA)
RNA: B6 RNA with G25C, U27C, A30U, G31C
DNA 1: CAATCTGAATTCCGGTCTCCC
DNA 2: TGGTGGCTACGACGGGATT
B17: GGGAUUC (DNA:RNA)
RNA: B1 RNA with C25G, A27G, A29U, U31C
DNA 1: CAATCTGAATTCCGGTCTCCC
DNA 2: TGGTGGCTACGACGGGATT
B18: ACUACGG (DNA:RNA)
RNA: B6 RNA with G25A, A26C, C28A, U29C, A30G
DNA 1: CAATCTGAATTCCGGTCTCCC
DNA 2: TGGTGGCTACGACGGGATT
B19: CGGUCCA (DNA:RNA)
RNA: B1 RNA with A27G, A28U, A29C, U30C, U31A
DNA 1: CAATCTGAATTCCGGTCTCCC
DNA 2: TGGTGGCTACGACGGGATT
B20: GGCGAAG (DNA:RNA)
RNA: B6 RNA with A26G, U27C, C28G, U29A
DNA 1: CAATCTGAATTCCGGTCTCCC
DNA 2: TGGTGGCTACGACGGGATT
B21: UACGUCU (DNA:RNA)
RNA: B6 RNA with G25U, U27C, C28G, A30C, G31U
DNA 1: CAATCTGAATTCCGGTCTCCC
DNA 2: TGGTGGCTACGACGGGATT
B22: AAAGCAC (DNA:RNA)
RNA: B6 RNA with G25A, U27A, C28G, U29C, G31C
DNA 1: CAATCTGAATTCCGGTCTCCC
DNA 2: TGGTGGCTACGACGGGATT
B23: GUACUAU (DNA:RNA)
RNA: B6 RNA with A26U, U27A, G31U
DNA 1: CAATCTGAATTCCGGTCTCCC
DNA 2: TGGTGGCTACGACGGGATT
B24: UCCUCCG (DNA:RNA)
RNA: B6 RNA with G25U, A26C, U27C, C28U, U29C, A30C
DNA 1: CAATCTGAATTCCGGTCTCCC
DNA 2: TGGTGGCTACGACGGGATT
B25: CCUGUAA (DNA:RNA)
RNA: B6 RNA with G25C, A26C, C28G, G31A
DNA 1: CAATCTGAATTCCGGTCTCCC
DNA 2: TGGTGGCTACGACGGGATT
B26: CUGCUAU (DNA:RNA)
RNA: B6 RNA with G25C, A26U, U27G, G31U
DNA 1: CAATCTGAATTCCGGTCTCCC
DNA 2: TGGTGGCTACGACGGGATT
B27: CCCGGAU (DNA:RNA)
RNA: B1 RNA with G26C, A27C, A28G, A29G, U30A
DNA 1: CAATCTGAATTCCGGTCTCCC
DNA 2: TGGTGGCTACGACGGGATT
B28: UGGGGUG (DNA:RNA)
RNA: B1 RNA with C25U, A27G, A28G, A29G, U31G
DNA 1: CAATCTGAATTCCGGTCTCCC
DNA 2: TGGTGGCTACGACGGGATT
B29: AUUCGUU (DNA:RNA)
RNA: B1 RNA with C25A, G26U, A27U, A28C, A29G
DNA 1: CAATCTGAATTCCGGTCTCCC
DNA 2: TGGTGGCTACGACGGGATT
B30: UGCUAAC (DNA:RNA)
RNA: B1 RNA with C25U, A27C, A28U, U30A, U31C
DNA 1: CAATCTGAATTCCGGTCTCCC
DNA 2: TGGTGGCTACGACGGGATT
B31: GUUCAGU (DNA:RNA)
RNA: B6 RNA with A26U, U29A, A30G, G31U
DNA 1: CAATCTGAATTCCGGTCTCCC
DNA 2: TGGTGGCTACGACGGGATT

Molecular target: T1, RBFOX1 RRM
Assay: EMSA; HiTS-Eq, 1 nM pool, 10 min; buffer printed only for the single-RNA assays: 10 mM Tris pH 7.5, 150 mM NaCl, 3.4 mM EDTA, 0.001% NP-40, 30 C
Conditions: tags: His6 N-terminal (pET28a); label: 5' 32P
Summary of the method: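 Purified wild-type or mutant RbFox RRM at increasing concentrations was equilibrated with 1 nM of 5′-radiolabelled RNA carrying 7 randomized nucleotides for 10 min in 50 µL. Unbound RNA was separated by 8% native PAGE and sequenced. Relative association constants came from read-count changes of each RNA species compared with the control reaction, normalised to the cognate motif.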

Binder | binding signal
B1 | 0.00438 KA relative to UGCAUGU
B2 | 0.00169 KA relative to UGCAUGU
B3 | 0.00477 KA relative to UGCAUGU
B4 | 0.0052 KA relative to UGCAUGU
B5 | 0.00352 KA relative to UGCAUGU
B6 | 0.00899 KA relative to UGCAUGU
B7 | 0.004 KA relative to UGCAUGU
B8 | 0.0241 KA relative to UGCAUGU
B9 | 0.00393 KA relative to UGCAUGU
B10 | 0.00435 KA relative to UGCAUGU
B11 | 0.0123 KA relative to UGCAUGU
B12 | 0.00131 KA relative to UGCAUGU
B13 | 0.015 KA relative to UGCAUGU
B14 | 0.00802 KA relative to UGCAUGU
B15 | 0.0295 KA relative to UGCAUGU
B16 | 0.00139 KA relative to UGCAUGU

Binder | binding signal
B17 | 0.044 KA relative to UGCAUGU
B18 | 0.00242 KA relative to UGCAUGU
B19 | 0.00384 KA relative to UGCAUGU
B20 | 0.0205 KA relative to UGCAUGU
B21 | 0.00865 KA relative to UGCAUGU
B22 | 0.00515 KA relative to UGCAUGU
B23 | 0.00435 KA relative to UGCAUGU
B24 | 0.00878 KA relative to UGCAUGU
B25 | 0.00808 KA relative to UGCAUGU
B26 | 0.0132 KA relative to UGCAUGU
B27 | 0.00413 KA relative to UGCAUGU
B28 | 0.0422 KA relative to UGCAUGU
B29 | 0.00879 KA relative to UGCAUGU
B30 | 0.0162 KA relative to UGCAUGU
B31 | 0.0151 KA relative to UGCAUGU
